# According to a collection of fitness landscapes (doi:10.1126/science.1257360):
# The other results are listed elsewhere or left out.
# B1: PhoQ; a variant is named by its letters at X, in order, P23837 (parent)
# chain: MKKLLRLFFPLSLRVRFLLATAAVVLVLSLAYGMVALIGYSVSFDKTTFRLLRGESNLFYTLAKWENNKLHVELPENIDKQSPTMTLIYDENGQLLWAQRDVPWLMKMIQPDWLKSNGFHEIEADVNDTSLLLSGDHSIQQQLQEVREDDDDAEMTHSVAVNVYPATSRMPKLTIVVVDTIPVELKSSYMVWSWFIYVLSANLLLVIPLLWVAAWWSLRPIEALAKEVRELEEHNRELLNPATTRELTSLVRNLNRLLKSERERYDKYRTTLTDLTHSLKTPLXXLQXXLRSLRSEKMSVSDAEPVMLEQISRISQQIGYYLHRASMRGGTLLSRELHPVAPLLDNLTSALNKVYQRKGVNISLDISPEISFVGEQNDFVEVMGNVLDNACKYCLEFVEISARQTDEHLYIVVEDDGPGIPLSKREVIFDRGQRVDTLRPGQGVGLAVAREITEQYEGKIVAGESMLGGARMEVIFGRQHSAPKDE
# Variants of: B1
# Assay: enrichment ratio after two sorts for PhoP signalling (ratio (wild type AVST 3.29)); higher = more functional
# Conditions: with PhoP (E. coli)
row,Variant,enrichment ratio
1,SQLM,21.3
2,AINC,≤ 0.25
3,QLFQ,≤ 0.25
4,QDPE,≤ 0.25
5,EGSQ,≤ 0.25
6,NNFQ,≤ 0.25
7,LQKF,≤ 0.25
8,SWGW,≤ 0.25
9,TFRF,≤ 0.25
10,TFVK,≤ 0.25
11,NFTY,≤ 0.25
12,NTYY,≤ 0.25
13,VAEK,≤ 0.25
14,AERF,≤ 0.25
15,TWRP,≤ 0.25
16,EGTH,≤ 0.25
17,DQPV,≤ 0.25
18,TFKG,≤ 0.25
19,TPEH,≤ 0.25
20,GHPA,≤ 0.25
21,GWNM,≤ 0.25
22,HSME,≤ 0.25
23,NQNP,≤ 0.25
24,TQKH,≤ 0.25

row,Variant,enrichment ratio
1,NGIK,≤ 0.25
2,VDII,≤ 0.25
3,VRYR,≤ 0.25
4,RHET,≤ 0.25
5,TQWH,21.9
6,VMPG,≤ 0.25
7,YNFW,≤ 0.25
8,FLHR,≤ 0.25
9,GSMQ,10.1
10,WTWE,≤ 0.25
11,SCFW,≤ 0.25
12,QVTR,≤ 0.25
13,STHC,≤ 0.25
14,YMFP,≤ 0.25
15,MSVY,7.18
16,QPAK,≤ 0.25
17,SPRQ,≤ 0.25
18,GQAT,≤ 0.25
19,EAGK,≤ 0.25
20,PEAL,≤ 0.25
21,MIPD,≤ 0.25
22,LYMW,≤ 0.25
23,VDTC,≤ 0.25
24,SLPS,≤ 0.25

row,Variant,enrichment ratio
1,KIQD,≤ 0.25
2,AKYA,≤ 0.25
3,HSLF,3.47
4,AFPT,≤ 0.25
5,TILG,1.15
6,EQPI,≤ 0.25
7,HYRW,≤ 0.25
8,HFTE,≤ 0.25
9,NGHI,≤ 0.25
10,INWL,≤ 0.25
11,KTSA,≤ 0.25
12,HNGK,≤ 0.25
13,GECC,0.291
14,IIKD,≤ 0.25
15,HSCR,≤ 0.25
16,YQKQ,≤ 0.25
17,VRVM,≤ 0.25
18,MTDI,≤ 0.25
19,QHTL,≤ 0.25
20,TFGI,0.279
21,VQNK,≤ 0.25
22,AHKG,≤ 0.25
23,HWAR,≤ 0.25
24,SRFY,≤ 0.25

row,Variant,enrichment ratio
1,SWAL,≤ 0.25
2,QCQL,≤ 0.25
3,NYAL,≤ 0.25
4,YTGL,≤ 0.25
5,RIGY,≤ 0.25
6,NLGV,≤ 0.25
7,QINC,≤ 0.25
8,QYRK,≤ 0.25
9,IRCP,≤ 0.25
10,KHVR,≤ 0.25
11,VNMQ,9.37
12,YCSR,≤ 0.25
13,ANFE,≤ 0.25
14,NIDM,≤ 0.25
15,IYWP,≤ 0.25
16,VRMT,≤ 0.25
17,SMGY,7.3
18,RRPL,≤ 0.25
19,MMGY,≤ 0.25
20,STMK,9.3
21,NMMP,≤ 0.25
22,PTAE,≤ 0.25
23,KAWL,≤ 0.25
24,EVHW,≤ 0.25

row,Variant,enrichment ratio
1,KFWG,≤ 0.25
2,FQTS,≤ 0.25
3,PSLK,≤ 0.25
4,NARN,≤ 0.25
5,DLRE,≤ 0.25
6,CYSP,≤ 0.25
7,ELCG,≤ 0.25
8,VYMP,≤ 0.25
9,IYGL,≤ 0.25
10,PMSS,≤ 0.25
11,RGFH,≤ 0.25
12,KNRQ,≤ 0.25
13,ESER,≤ 0.25
14,EPFQ,≤ 0.25
15,MTGK,≤ 0.25
16,KFRY,≤ 0.25
17,RWDI,≤ 0.25
18,HDKL,≤ 0.25
19,IIPD,≤ 0.25
20,RQQI,≤ 0.25
21,FCGE,≤ 0.25
22,HWHI,≤ 0.25
23,PTVM,≤ 0.25
24,VVEP,≤ 0.25

row,Variant,enrichment ratio
1,HSVA,≤ 0.25
2,FNWD,≤ 0.25
3,SRGK,≤ 0.25
4,AFKW,≤ 0.25
5,HTCR,≤ 0.25
6,MVMG,1.65
7,EQDL,≤ 0.25
8,FLTC,≤ 0.25
9,NTCK,≤ 0.25
10,MAAF,≤ 0.25
11,YTPS,≤ 0.25
12,MVYQ,≤ 0.25
13,LQFS,0.355
14,WRTQ,≤ 0.25
15,DAKP,≤ 0.25
16,NVRY,≤ 0.25
17,TYGL,3.42
18,NPVP,≤ 0.25
19,QNSV,1.25
20,IAWY,≤ 0.25
21,SAVT,0.95
22,SLNV,≤ 0.25
23,MQVH,2.29
24,MYSI,≤ 0.25

row,Variant,enrichment ratio
1,LLYI,≤ 0.25
2,DPWG,≤ 0.25
3,ETLQ,≤ 0.25
4,SAYD,≤ 0.25
5,PLNK,≤ 0.25
6,WVVA,≤ 0.25
7,NKNA,≤ 0.25
8,GKLA,≤ 0.25
9,MLWF,≤ 0.25
10,MSNW,≤ 0.25
11,ERSE,≤ 0.25
12,THNY,3.01
13,KVEH,≤ 0.25
14,LKTN,≤ 0.25
15,FGVG,≤ 0.25
16,SFSA,0.898
17,EFLC,≤ 0.25
18,IVTI,≤ 0.25
19,SRCM,9.77
20,HQQV,≤ 0.25
21,QQYH,≤ 0.25
22,FGEQ,≤ 0.25
23,PDPE,≤ 0.25
24,GVCL,6.97

row,Variant,enrichment ratio
1,KSRG,≤ 0.25
2,WFDR,≤ 0.25
3,LSML,9.48
4,HRMC,≤ 0.25
5,KMYS,≤ 0.25
6,YYYT,≤ 0.25
7,VPTT,≤ 0.25
8,DIMH,≤ 0.25
9,RLKQ,≤ 0.25
10,MLCW,≤ 0.25
11,TNYS,8.4
12,QCHQ,≤ 0.25
13,RMHF,≤ 0.25
14,WYCN,≤ 0.25
15,QCMQ,≤ 0.25
16,SGTM,4.45
17,GFAA,≤ 0.25
18,FAVN,≤ 0.25
19,FMQN,≤ 0.25
20,MFTR,≤ 0.25
21,RVAM,≤ 0.25
22,FTLQ,6.79
23,EAEP,≤ 0.25
24,HTGS,≤ 0.25

row,Variant,enrichment ratio
1,FDKQ,≤ 0.25
2,DIAP,≤ 0.25
3,PWRK,≤ 0.25
4,YEKM,≤ 0.25
5,GDQS,≤ 0.25
6,VRNF,≤ 0.25
7,AFAR,≤ 0.25
8,TLGE,2.24
9,ALNS,≤ 0.25
10,FRAT,≤ 0.25
11,GCRP,≤ 0.25
12,GTHW,≤ 0.25
13,QQCA,≤ 0.25
14,WNRD,≤ 0.25
15,DDIP,≤ 0.25
16,NWNY,≤ 0.25
17,LYPK,≤ 0.25
18,WHGK,≤ 0.25
19,QALF,≤ 0.25
20,QIIY,≤ 0.25
21,AGRT,≤ 0.25
22,SVMY,3.92
23,TPDR,≤ 0.25
24,IAFP,≤ 0.25

row,Variant,enrichment ratio
1,ENLW,≤ 0.25
2,DWPY,≤ 0.25
3,SNCD,16.4
4,MFIP,≤ 0.25
5,DLVC,≤ 0.25
6,PYQR,0.539
7,PWIS,≤ 0.25
8,SNTW,≤ 0.25
9,FVGT,≤ 0.25
10,GMCF,1.76
11,DETM,≤ 0.25
12,KQRT,≤ 0.25
13,EGNK,≤ 0.25
14,ISST,≤ 0.25
15,NNSM,5.24
16,LVYD,≤ 0.25
17,AIWG,≤ 0.25
18,VAFW,≤ 0.25
19,IYSG,≤ 0.25
20,YDFW,≤ 0.25
21,SMYS,≤ 0.25
22,VLPL,≤ 0.25
23,GTLE,14.3
24,VCFL,≤ 0.25

row,Variant,enrichment ratio
1,SSHW,≤ 0.25
2,HKNK,≤ 0.25
3,GIDF,≤ 0.25
4,QYQY,≤ 0.25
5,KTNC,≤ 0.25
6,GNTR,≤ 0.25
7,WQFR,≤ 0.25
8,ICQQ,≤ 0.25
9,ICKR,≤ 0.25
10,QILW,≤ 0.25
11,ASHN,≤ 0.25
12,EKCT,≤ 0.25
13,NPDC,≤ 0.25
14,HNCH,≤ 0.25
15,QPVH,≤ 0.25
16,PRWT,≤ 0.25
17,MANM,≤ 0.25
18,FFHD,≤ 0.25
19,IPGN,≤ 0.25
20,INGL,≤ 0.25
21,HKFR,≤ 0.25
22,HCFV,≤ 0.25
23,SQRP,≤ 0.25
24,QDPM,≤ 0.25

row,Variant,enrichment ratio
1,FKNH,≤ 0.25
2,GEFW,≤ 0.25
3,SAMS,7.54
4,GTVW,≤ 0.25
5,KFLT,≤ 0.25
6,VWNF,≤ 0.25
7,FFFH,≤ 0.25
8,LANR,≤ 0.25
9,IQFT,≤ 0.25
10,GDCN,≤ 0.25
11,KDEW,≤ 0.25
12,KIHD,≤ 0.25
13,FWND,≤ 0.25
14,VNSS,≤ 0.25
15,PKHV,≤ 0.25
16,TLGS,5.19
17,MEKD,≤ 0.25
18,DLKV,≤ 0.25
19,RMYI,≤ 0.25
20,VHNR,≤ 0.25
21,KSWQ,≤ 0.25
22,SQVQ,15.1
23,PWWP,≤ 0.25
24,PSLY,≤ 0.25

row,Variant,enrichment ratio
1,PALP,≤ 0.25
2,RNNQ,≤ 0.25
3,SGAE,7.08
4,NMKS,≤ 0.25
5,TNAL,6.87
6,ALCW,6.49
7,RMHA,≤ 0.25
8,RAGT,≤ 0.25
9,SPGS,≤ 0.25
10,VVVG,≤ 0.25
11,GQLY,8.08
12,GYMN,≤ 0.25
13,DCML,≤ 0.25
14,VRWT,≤ 0.25
15,DGTQ,≤ 0.25
16,MSKG,≤ 0.25
17,TRPW,≤ 0.25
18,LVRD,≤ 0.25
